{"source": "the RNAGym collection of RNA variant scans (doi:10.1101/gad.245936.114)", "parents": {"B1": {"name": "tRNA (parent)", "chain": "CUCUCGGUAGCCAAGUUGGUUUAAGGCGCAAGACUUUAAUUUAUCACUACGAAAUCUUGAGAUCGGGCGUUCGACUCGCCCCCGGGAGAUUUUUUCCUCGAGCAA"}}, "note": "Variants at the background level are over-represented here."}
{"variants_of": "B1", "experiment": "nonsense suppression (GFP-seq) (ratio to wild type); higher = more function; SUP4oc tRNA, yeast GFP reporter sort-seq", "how_it_was_run": "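Sorted GFP/RFP bins of yeast were each Illumina-sequenced with a phred ≥30 cutoff; the cells held a genome-integrated ochre-suppressor tRNA variant from a library with ~3% random mutations, a galactose-driven GFP ochre reporter, and RFP. Culture was in raffinose/galactose medium containing 80 mg/L adenine. Nonsense suppression, termed GFPSEQ, is the median GFP/RFP of the bins weighted by each variant's estimated cell share per bin, relative to the unmutated parent tRNA, for variants reaching ≥100 reads and ≥30 cells.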"}
{"variant": "G84U G88A", "nonsense suppression": "≤ 0.026"}
{"variant": "G84U G88U", "nonsense suppression": "≤ 0.026"}
{"variant": "C82A A87U", "nonsense suppression": "≤ 0.026"}
{"variant": "C82A A87G", "nonsense suppression": "≤ 0.026"}
{"variant": "C80A G85U", "nonsense suppression": "≤ 0.026"}
{"variant": "C80U A87U", "nonsense suppression": 0.035}
{"variant": "C77A C82G", "nonsense suppression": "≤ 0.026"}
{"variant": "C81U G88U", "nonsense suppression": 0.0501}
{"variant": "G78U G88C", "nonsense suppression": "≤ 0.026"}
{"variant": "G78U G88A", "nonsense suppression": "≤ 0.026"}
{"variant": "C83U G85U G88C", "nonsense suppression": "≤ 0.026"}
{"variant": "C79A A87U", "nonsense suppression": "≤ 0.026"}
{"variant": "C79A A87C", "nonsense suppression": "≤ 0.026"}
{"variant": "G78A G88U", "nonsense suppression": "≤ 0.026"}
{"variant": "G78C C82G", "nonsense suppression": "≤ 0.026"}
{"variant": "G84A A89U", "nonsense suppression": "≤ 0.026"}
{"variant": "G84A A89C", "nonsense suppression": "≤ 0.026"}
{"variant": "A87G G88A", "nonsense suppression": "≤ 0.026"}
{"variant": "A87G G88C", "nonsense suppression": "≤ 0.026"}
{"variant": "G78C G85U", "nonsense suppression": 0.232}
{"variant": "C77U G84C", "nonsense suppression": "≤ 0.026"}
{"variant": "C80U C81G", "nonsense suppression": "≤ 0.026"}
{"variant": "C80U C83G", "nonsense suppression": "≤ 0.026"}
{"variant": "C80U C83A", "nonsense suppression": "≤ 0.026"}
{"variant": "G88C A89C", "nonsense suppression": "≤ 0.026"}
{"variant": "C82A G86A", "nonsense suppression": "≤ 0.026"}
{"variant": "C82A G86U", "nonsense suppression": "≤ 0.026"}
{"variant": "C80U G85A", "nonsense suppression": 0.733}
{"variant": "C81A A89C", "nonsense suppression": "≤ 0.026"}
{"variant": "C81A G84U", "nonsense suppression": "≤ 0.026"}
{"variant": "C77G G88C", "nonsense suppression": "≤ 0.026"}
{"variant": "C77U C79A C83A", "nonsense suppression": "≤ 0.026"}
{"variant": "G78A C80U", "nonsense suppression": "≤ 0.026"}
{"variant": "G78A C80G", "nonsense suppression": "≤ 0.026"}
{"variant": "G78A C79G", "nonsense suppression": 0.0629}
{"variant": "G85C A87C", "nonsense suppression": "≤ 0.026"}
{"variant": "C77U G85A", "nonsense suppression": "≤ 0.026"}
{"variant": "C77A A89U", "nonsense suppression": "≤ 0.026"}
{"variant": "G84C G85U", "nonsense suppression": "≤ 0.026"}
{"variant": "G84C G85C", "nonsense suppression": 0.0289}
{"variant": "U76G G88U", "nonsense suppression": "≤ 0.026"}
{"variant": "C80U C82G G84C", "nonsense suppression": "≤ 0.026"}
{"variant": "C81A C83A", "nonsense suppression": "≤ 0.026"}
{"variant": "G78U C83A", "nonsense suppression": 0.0425}
{"variant": "C83A A89G", "nonsense suppression": "≤ 0.026"}
{"variant": "C81G G88U", "nonsense suppression": "≤ 0.026"}
{"variant": "C81G G88A", "nonsense suppression": "≤ 0.026"}
{"variant": "G86A G88A", "nonsense suppression": "≤ 0.026"}
{"variant": "G86A G88C", "nonsense suppression": "≤ 0.026"}
{"variant": "C77G G85U", "nonsense suppression": "≤ 0.026"}
{"variant": "G78U G84A", "nonsense suppression": 0.0428}
{"variant": "C81A A87U", "nonsense suppression": "≤ 0.026"}
{"variant": "C81A A87C", "nonsense suppression": "≤ 0.026"}
{"variant": "C81A G88U", "nonsense suppression": "≤ 0.026"}
{"variant": "G78A C82A", "nonsense suppression": 0.0338}
{"variant": "C79A C82A", "nonsense suppression": "≤ 0.026"}
{"variant": "G78A G84U", "nonsense suppression": 0.0325}
{"variant": "G78A G84A", "nonsense suppression": 0.459}
{"variant": "G78C A87C", "nonsense suppression": "≤ 0.026"}
{"variant": "C82G G85C", "nonsense suppression": "≤ 0.026"}
{"variant": "C79G C80U", "nonsense suppression": "≤ 0.026"}
{"variant": "C79G C80G", "nonsense suppression": "≤ 0.026"}
{"variant": "G86U A87U", "nonsense suppression": "≤ 0.026"}
{"variant": "G78A C81U", "nonsense suppression": "≤ 0.026"}
{"variant": "C79U G84U", "nonsense suppression": "≤ 0.026"}
{"variant": "G78U C82U", "nonsense suppression": 0.105}
{"variant": "G78C G86C", "nonsense suppression": "≤ 0.026"}
{"variant": "C82U G85A", "nonsense suppression": 0.99}
{"variant": "C83U G84A", "nonsense suppression": "≤ 0.026"}
{"variant": "C79G C83U", "nonsense suppression": "≤ 0.026"}
{"variant": "G85U G88U", "nonsense suppression": "≤ 0.026"}
{"variant": "G85A A87G", "nonsense suppression": 1.18}
{"variant": "G88U A89C", "nonsense suppression": "≤ 0.026"}
{"variant": "G88U A89G", "nonsense suppression": "≤ 0.026"}
{"variant": "G86U A89G", "nonsense suppression": "≤ 0.026"}
{"variant": "C77G C79A", "nonsense suppression": "≤ 0.026"}
{"variant": "C81U C83A", "nonsense suppression": "≤ 0.026"}
{"variant": "C81U", "nonsense suppression": 1.16}
{"variant": "C81G", "nonsense suppression": "≤ 0.026"}
{"variant": "C81A", "nonsense suppression": "≤ 0.026"}
{"variant": "C80A A87G", "nonsense suppression": "≤ 0.026"}
{"variant": "C79U C81G", "nonsense suppression": "≤ 0.026"}
{"variant": "G85C G86C", "nonsense suppression": "≤ 0.026"}
{"variant": "C79U G86C", "nonsense suppression": 0.0687}
{"variant": "C80G G85A", "nonsense suppression": "≤ 0.026"}
{"variant": "C77A G78U", "nonsense suppression": "≤ 0.026"}
{"variant": "G78A C83U", "nonsense suppression": 0.0266}
{"variant": "C83A G86C", "nonsense suppression": "≤ 0.026"}
{"variant": "C77G C80A", "nonsense suppression": "≤ 0.026"}
{"variant": "C77U G88C", "nonsense suppression": "≤ 0.026"}
{"variant": "C77G C82G", "nonsense suppression": "≤ 0.026"}
{"variant": "G78A G85U", "nonsense suppression": 0.0673}
{"variant": "C83U G88U A89C", "nonsense suppression": "≤ 0.026"}
{"variant": "C82A A89U", "nonsense suppression": "≤ 0.026"}
{"variant": "C79U C82G", "nonsense suppression": "≤ 0.026"}
{"variant": "C79U C82G A89U", "nonsense suppression": "≤ 0.026"}
{"variant": "C80G C83U", "nonsense suppression": "≤ 0.026"}
{"variant": "C79G C80U G86A", "nonsense suppression": "≤ 0.026"}
{"variant": "G84U G86A", "nonsense suppression": "≤ 0.026"}
{"variant": "C82G C83U G84A", "nonsense suppression": "≤ 0.026"}
{"variant": "C82A G88U", "nonsense suppression": "≤ 0.026"}
{"variant": "C82A G88A", "nonsense suppression": "≤ 0.026"}
{"variant": "C79U", "nonsense suppression": 0.879}
{"variant": "C79A", "nonsense suppression": "≤ 0.026"}
{"variant": "C79G", "nonsense suppression": "≤ 0.026"}
{"variant": "C81G G84C", "nonsense suppression": "≤ 0.026"}
{"variant": "C83A G88C", "nonsense suppression": "≤ 0.026"}
{"variant": "C83A G85C", "nonsense suppression": "≤ 0.026"}
{"variant": "C77G C83G", "nonsense suppression": "≤ 0.026"}
{"variant": "C77A G88A", "nonsense suppression": "≤ 0.026"}
{"variant": "C82U C83G", "nonsense suppression": "≤ 0.026"}
{"variant": "A87C A89C", "nonsense suppression": "≤ 0.026"}
{"variant": "C83A G84C", "nonsense suppression": "≤ 0.026"}
{"variant": "C80A G88U", "nonsense suppression": "≤ 0.026"}
{"variant": "C79A G86A", "nonsense suppression": "≤ 0.026"}
{"variant": "G78C A89U", "nonsense suppression": "≤ 0.026"}
{"variant": "A87C G88A", "nonsense suppression": "≤ 0.026"}
{"variant": "C80U G84A", "nonsense suppression": 0.125}
{"variant": "C80U G84C", "nonsense suppression": "≤ 0.026"}
{"variant": "C77A C81A G86A", "nonsense suppression": "≤ 0.026"}
{"variant": "C77G G78A", "nonsense suppression": "≤ 0.026"}
{"variant": "C81U G84A", "nonsense suppression": 0.0642}
